In ChEMBL document CHEMBL4888484, “Replenishing the malaria drug discovery pipeline: Screening and hit evaluation of the MMV Hit Generation Library 1 (HGL1) against asexual blood stage Plasmodium falciparum ,using a nano luciferase reporter read-out” (2022):
About 540 (0.36%) of roughly 150,000 compounds showed an effect of 50% or more. The list shows a part of the results.

Tested on: Plasmodium falciparum
Assay: Primary screen in NF54 nanoGlo assay, in single point, at 2uM, 72h; a lower Z score goes with more inhibition
Type: functional, Erythrocyte
Conditions: timepoint 72 hour

Row | Compound | % Inhibition | Z score
1 | Cc1cc(=O)c(CO)nn1CCOCC1CC1 | -1% | 0.21
2 | Cc1ccc(N(C)C(=O)c2ncccc2O)cc1N(C)C | 0% | -0.03
3 | Cc1ccc(S(=O)(=O)N2CCCN([C@H]3CCOC3)CC2)s1 | -16% | 2.74
4 | Cc1cccc(Cl)c1S(=O)(=O)N(C)[C@@H](C)CC(N)=O | -14% | 1.83
5 | CCN(CC)Cc1ccc2c(c1)CN(C(=O)c1sccc1C)CCO2 | -6% | 0.59
6 | OC[C@H]1CCCN(c2ccc(C(F)(F)F)cn2)[C@H]1CO | 29% | -3.28
7 | Clc1cccc2[nH]c(-c3nc([C@H]4CCOC4)no3)cc12 | -5% | 0.83
8 | Cc1cc2[nH]cc(C(=O)N3CC[C@@]4(CCCN(CC5CC5)C4=O)C3)c(=O)n2n1 | 2% | -0.19
9 | CCC1CN(C(C)=O)CCC1NCc1cc2cc(F)ccc2o1 (stereo unspecified) | -8% | 0.97
10 | NC(=O)c1ccccc1OCC#CCNC(=O)Cc1ccc(F)cc1 | 8% | -1.02
11 | CS(=O)(=O)c1ccc(Cl)c(C(=O)N2CCC(c3nc4ccccc4o3)CC2)c1 | 14% | -1.62
12 | Cc1ccc(S(=O)(=O)N2C[C@@H](C(=O)Nc3ccccc3C(C)C)Oc3ccc(C)cc32)cc1 | -6% | 0.82
13 | CCCCCC(C)NC(=O)N1CCCCC1C (stereo unspecified) | 2% | -0.28
14 | COC1(C)CN(c2nc(C)c3cn[nH]c3n2)C1 | -10% | 1.55
15 | Cc1ccccc1NC(=O)[C@@H]1CCCN1C(=O)OCc1ccccc1 | 29% | -3.3
16 | CCN1CCC(NCc2ccn(C)n2)C1c1ccc(Cl)c(F)c1 (stereo unspecified) | -6% | 0.71
17 | Cc1c(-c2ccccc2)noc1NC(=O)CN1CCCCCC1 | -2% | 0.4
18 | CC(C)c1noc(Cc2ccc(NC(=O)C3CC=CC3)cc2)n1 | -4% | 0.48
19 | CC(=O)Nc1ccc(C)cc1S(=O)(=O)NCc1nn(Cc2ccccc2)c2ccccc12 | -3% | 0.3
20 | CC(C)Cn1cc(C(=O)OC2CCN(c3ccncn3)CC2)cn1 | 28% | -3.11
21 | Cc1ccc(N2CCC(NC(=O)CC(C)c3c(C)noc3C)C2)cc1 (stereo unspecified) | 16% | -2.05
22 | CCOC(=O)C(C)NC(C)c1cc(F)c(F)c(F)c1 (stereo unspecified) | -2% | 0.24

Row | Compound | % Inhibition | Z score
23 | CN(C)CCCNC(=O)C1CCN(c2nc3ccc(-c4cccnc4)nc3s2)CC1 | 10% | -1.09
24 | Cn1nc(-c2cccnc2)cc1CNC(=O)C1CCCC1 | 12% | -1.47
25 | COc1cc2c(cc1OC)[C@H](C1CC1)N(Cc1ccnn1C)CC2 | -2% | 0.2
26 | O=C(NCCCN1CCCC1=O)NCC1(c2ccccc2)CC1 | -7% | 1.41
27 | NC(=O)CCCNC(=O)C1(Cc2cccc(Cl)c2)CCCC1 | -4% | 0.52
28 | CCNC(=O)N1CCN(C(=O)c2ccnc3c2nnn3C)CC1 | -1% | 0.11
29 | CCCN(CC(=O)N1CCn2cccc2[C@H]1c1cccc(Oc2ccccc2)c1)C(=O)Nc1cccc(C)c1 | -18% | 1.54
30 | O=C(Cn1cncn1)Nc1cc(C2CCCCCC2)[nH]n1 | -1% | 0.15
31 | COc1ccc2cc3c(nc2c1)N(C(=O)c1cccc(C)c1)CC3 | -8% | 0.87
32 | COc1ccc(CCNC(=O)Cn2c(=O)n(CCc3ccc(Cl)cc3)c(=O)c3ccccc32)cc1OC | -2% | 0.19
33 | Cn1cc(C(=O)N[C@@H](Cn2cccn2)c2ccccc2)ccc1=O | 1% | -0.18
34 | Cc1ccc(C(C)NC(=O)NCC2CCC(O)C2)cc1F (stereo unspecified) | -5% | 0.74
35 | Cc1ccc(-c2ncc[nH]2)cc1NC(=O)[C@]1(C)CCCNC1=O | -15% | 2.34
36 | Cc1ccccc1Oc1nc(N2CCCC2)nc2c1CN(Cc1ccncc1)CC2 | -9% | 1
37 | CCc1oc(C(=O)NCCOc2nonc2C)cc1CN1CCCC1 | 10% | -1.33
38 | COc1cccc(OCc2nc(-c3cnn[nH]3)n(CCO)n2)c1 | 2% | -0.2
39 | CCC(=O)N(CCOC)Cc1cc(NC(=O)C2CCC2)ccc1N(C)C | -8% | 1.16
40 | CC(C)(C)[C@@H]1NC(=O)N(Cc2cc(Br)c3c(c2)OCCO3)C1=O | 3% | -0.53
41 | C[C@H]1Cc2ccccc2N1C(=O)Cn1cc(C(=O)c2ccco2)c2ccccc21 | -35% | 4.1
42 | CC(C)c1cc([C@@H]2CCCN2C(=O)NCc2ccccc2)on1 | 0% | 0.03
43 | O=S(=O)(c1ccc(Cl)c(Cl)c1)N1CC(n2ccnn2)C1 | -16% | 2.99
44 | C=CCN1CCC[C@H]1C(=O)N1CCC(COC(C)C)CC1 | -4% | 0.78

Row | Compound | % Inhibition | Z score
45 | Cc1c[nH]c(CN(C)C(=O)c2c(C)noc2C)n1 | -9% | 1.79
46 | Cc1ccc(O[C@H]2CCCN(C(=O)Cc3cccnc3)C2)nn1 | 2% | -0.4
47 | Brc1cncc(N[C@H]2CCC3(C2)OCCO3)c1 | -3% | 0.38
48 | Cc1ccc(CC(=O)Nc2nnc(C3CC3)s2)cc1 | -17% | 2.71
49 | CCn1cc(OCc2nc(-c3ccsc3)no2)cn1 | -10% | 1.33
50 | O=C(CNCC1CC1)Nc1cccc(Cl)c1 | -4% | 0.39
51 | Cc1nc2cc(NC(=O)c3ccc[n+]([O-])c3)ccc2o1 | -3% | 0.45
52 | O=C1C[C@H](c2ncnn2Cc2ccc(F)cc2)CN1Cc1ccncc1 | -3% | 0.46
53 | CO[C@@H](Cn1ccnc1-c1ccnc2ccccc12)c1cccs1 | 3% | -0.57
54 | C[C@H]1CCCN(S(=O)(=O)NCCc2ccc3c(c2)OCCO3)C1 | -2% | 0.22
55 | CCc1nc(CN(C)C(=O)c2cncc(F)c2)no1 | 9% | -1.34
56 | Cc1cnc(N2C[C@H](C3CC3)[C@@H](N)C2)nc1N(C)C | 0% | 0.07
57 | C[C@@H](CN(C)CCO)NCc1cc2cc(Cl)ccc2[nH]1 | -5% | 0.62
58 | CCOc1cc(C(=O)NCCc2sc(C)nc2C)n[nH]1 | -5% | 0.63
59 | COc1ccc([C@@H]2CC(=O)c3cnc(N4CCCC4)nc3C2)c(OC)c1 | 2% | -0.19
60 | Cc1ccc(=O)n(C(C)C(=O)N2c3ccccc3CC2C)n1 (stereo unspecified) | 10% | -1.29
61 | COCCN(Cc1c(-c2ccccc2)noc1N1CCCC1)C[C@H](O)COCc1ccccc1 | 9% | -1.06
62 | CC(C)(C)OC(=O)N1CCOC[C@H]1c1nc(-c2cccnc2)cs1 | -12% | 1.32
63 | CC1CCN(C(=O)C2CCNC(=O)C2)C2CCCCC12 (stereo unspecified) | -2% | 0.24
64 | Oc1cc(Cc2ccccc2)nc2c(-c3ccccc3)c(COc3ccccc3)nn12 | -8% | 1.24
65 | Cc1ncnc(C)c1C(=O)N(C)Cc1cscn1 | -3% | 0.5
66 | Cc1nccc(N2CCC(N3CCC[C@H](C(=O)NCc4ccccn4)C3)CC2)n1 | -17% | 3.21

Row | Compound | % Inhibition | Z score
67 | CC(C)(NC(=O)c1n[nH]c2c1CCCC2)c1nnc(N)s1 | -13% | 1.8
68 | c1nc(C2CN(c3nc(C4CCOCC4)ns3)C2)ncc1C1CC1 | -9% | 1.63
69 | Cc1ccc([C@H](C)NCCOc2cccnc2)s1 | -13% | 1.32
70 | Cc1cc(CCC(=O)NCc2nc(C(C)C)cs2)[nH]n1 | 0% | -0.06
71 | Cc1n[nH]c(C)c1[C@H](C)N(C)C(=O)CCCN1CCCC1=O | 2% | -0.28
72 | O=C(OCC(=O)N1CCCc2ccccc21)c1cccc(S(=O)(=O)N2CCCc3ccccc32)c1 | -6% | 0.92
73 | CN(Cc1csc(-c2ccccc2)n1)C(=O)[C@@H]1COCCO1 | -1% | 0.21
74 | CN=C(NCCC1=CCOCC1)N1CC[C@H](CC(C)C)C1 | 1% | -0.07
75 | CCCN(C)C(=O)c1coc(CN2CCN(Cc3ccccc3)CC2)n1 | 1% | -0.21
76 | CN(C)C(=O)c1ccc(CN(CCO)c2ccccc2)[nH]1 | 6% | -1
77 | Cn1nnc(COc2cccc(C(C)(C)C)c2)n1 | 14% | -2.7
78 | Cc1cc(NC(=O)CS(=O)(=O)Cc2ccccc2)no1 | -10% | 1.85
79 | C(=Cc1ccccc1)COn1cccn1 | 2% | -0.32
80 | Cc1nc(C(=O)N2Cc3sccc3CC2(C)C)c[nH]1 | -10% | 1.31
81 | Cc1cc(NC(=O)C(=O)NCCCN(C)c2cccc(F)c2)n(C)n1 | 29% | -3.94
82 | CS(=O)(=O)CCC(=O)NCC=Cc1ccccc1 | 3% | -0.3
83 | CC(=O)c1c(-c2cccc(-c3ccn[nH]3)c2)cnn1C | 0% | 0.02
84 | Cc1ccc(C(C)C)c(OS(=O)(=O)c2ccc3c(c2)NC(=O)CO3)c1 | -13% | 2.62
85 | CCCn1ncnc1[C@H](C)NC(=O)c1ccc(C)n1C(F)F | -16% | 1.58
86 | O=C(NCc1cccnc1-c1ccco1)c1cncc(Br)c1 | -13% | 2.43
87 | Cc1cc(S(=O)(=O)N(C)CCC(=O)O)sc1C | -30% | 2.75
88 | CC1=N[C@@H](C)C(=O)Nc2cccc(C)c21 | -7% | 1.34
